# Data: article PMC12820563, “FoxP3 forms a head-to-head dimer in vivo and stabilizes its multimerization on adjacent microsatellites”
# The other results are listed elsewhere or left out.
# Target: T1, MBP-FoxP1dN (Mus musculus, UniProt P58462 326-579)
# T1 sequence: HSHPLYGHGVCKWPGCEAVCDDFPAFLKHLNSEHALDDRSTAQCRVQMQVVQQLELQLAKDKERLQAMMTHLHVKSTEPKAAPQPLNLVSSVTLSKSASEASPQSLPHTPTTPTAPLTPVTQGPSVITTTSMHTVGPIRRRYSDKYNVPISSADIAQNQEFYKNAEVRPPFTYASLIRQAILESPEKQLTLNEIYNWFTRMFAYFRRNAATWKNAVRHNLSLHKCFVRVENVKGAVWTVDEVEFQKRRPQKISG
# Experiment: PD-seq (MBP pull-down with sequencing); 20 mM Tris-HCl pH 7.5, 100 mM NaCl, 1.5 mM MgCl2, 0.4 uM protein, 0.1 uM dsDNA library, 30 min, room temperature, amylose pull-down; high values mean tight binding
# Settings: protein: recombinant; tags: His6-MBP; chain copies: 2; dsDNA, one strand shown
# In short: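 A degenerate double-stranded DNA library, filled in with Klenow, was added at 0.1 µM to 0.4 µM His6-MBP-tagged mouse FoxP3 or FoxP1 fragment lacking the N-terminus, expressed in E. coli. Incubation lasted 30 min at room temperature in Tris pH 7.5 buffer with NaCl and MgCl2, after which complexes were collected on amylose resin, washed three times, digested with proteinase K to free the DNA, barcoded by PCR and sequenced by Illumina. Binding is the pooled-replicate reads-per-million enrichment of pull-down over input.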
row,Sequence,binding signal
1,GATGATTGTTCTCCCAGCTGATGAATTCCATTCCTCGAGTAAACAAATTTTCCTAATCTTTCTGTTCAAGCGCCATCTAC,0.805 RPM ratio (pull-down/input)
2,GATGATTGTTCTCCCAGCTGATGAATTACAGTCGTCGAGTAAACAAATTTTCCTAATCTTTCTGTTCAAGCGCCATCTAC,1.05 RPM ratio (pull-down/input)
3,GATGATTGTTCTCCCAGCTGATGAATTACGATGCTCGAGTAAACAAATTTTCCTAATCTTTCTGTTCAAGCGCCATCTAC,1.18 RPM ratio (pull-down/input)
4,GATGATTGTTCTCCCAGCTGATGAATTCCGCAAATCGAGTAAACAAATTTTCCTAATCTTTCTGTTCAAGCGCCATCTAC,1.06 RPM ratio (pull-down/input)
5,GATGATTGTTCTCCCAGCTGATGAATTCACGTGCTCGAGTAAACAAATTTTCCTAATCTTTCTGTTCAAGCGCCATCTAC,0.87 RPM ratio (pull-down/input)
6,GATGATTGTTCTCCCAGCTGATGAATTCCTACACTCGAGTAAACAAATTTTCCTAATCTTTCTGTTCAAGCGCCATCTAC,0.863 RPM ratio (pull-down/input)
7,GATGATTGTTCTCCCAGCTGATGAATTTATGGCGTCGAGTAAACAAATTTTCCTAATCTTTCTGTTCAAGCGCCATCTAC,1.12 RPM ratio (pull-down/input)
8,GATGATTGTTCTCCCAGCTGATGAATTGTGAATGTCGAGTAAACAAATTTTCCTAATCTTTCTGTTCAAGCGCCATCTAC,1.03 RPM ratio (pull-down/input)
9,GATGATTGTTCTCCCAGCTGATGAATTATATCATTCGAGTAAACAAATTTTCCTAATCTTTCTGTTCAAGCGCCATCTAC,1.15 RPM ratio (pull-down/input)
10,GATGATTGTTCTCCCAGCTGATGAATTAAGCCCGTCGAGTAAACAAATTTTCCTAATCTTTCTGTTCAAGCGCCATCTAC,0.806 RPM ratio (pull-down/input)
11,GATGATTGTTCTCCCAGCTGATGAATTGGCATACTCGAGTAAACAAATTTTCCTAATCTTTCTGTTCAAGCGCCATCTAC,0.976 RPM ratio (pull-down/input)
12,GATGATTGTTCTCCCAGCTGATGAATTCTCTCATTCGAGTAAACAAATTTTCCTAATCTTTCTGTTCAAGCGCCATCTAC,0.862 RPM ratio (pull-down/input)
13,GATGATTGTTCTCCCAGCTGATGAATTGACCGCATCGAGTAAACAAATTTTCCTAATCTTTCTGTTCAAGCGCCATCTAC,1.2 RPM ratio (pull-down/input)
14,GATGATTGTTCTCCCAGCTGATGAATTAATAGGTTCGAGTAAACAAATTTTCCTAATCTTTCTGTTCAAGCGCCATCTAC,0.996 RPM ratio (pull-down/input)
15,GATGATTGTTCTCCCAGCTGATGAATTGCCCCCCTCGAGTAAACAAATTTTCCTAATCTTTCTGTTCAAGCGCCATCTAC,0.882 RPM ratio (pull-down/input)
16,GATGATTGTTCTCCCAGCTGATGAATTAATGTCGTCGAGTAAACAAATTTTCCTAATCTTTCTGTTCAAGCGCCATCTAC,1.06 RPM ratio (pull-down/input)

row,Sequence,binding signal
1,GATGATTGTTCTCCCAGCTGATGAATTATATCCGTCGAGTAAACAAATTTTCCTAATCTTTCTGTTCAAGCGCCATCTAC,0.992 RPM ratio (pull-down/input)
2,GATGATTGTTCTCCCAGCTGATGAATTGATAAGATCGAGTAAACAAATTTTCCTAATCTTTCTGTTCAAGCGCCATCTAC,1.01 RPM ratio (pull-down/input)
3,GATGATTGTTCTCCCAGCTGATGAATTTTGTCATTCGAGTAAACAAATTTTCCTAATCTTTCTGTTCAAGCGCCATCTAC,1.22 RPM ratio (pull-down/input)
4,GATGATTGTTCTCCCAGCTGATGAATTCTCCAGTTCGAGTAAACAAATTTTCCTAATCTTTCTGTTCAAGCGCCATCTAC,0.876 RPM ratio (pull-down/input)
5,GATGATTGTTCTCCCAGCTGATGAATTTGCAGATTCGAGTAAACAAATTTTCCTAATCTTTCTGTTCAAGCGCCATCTAC,0.98 RPM ratio (pull-down/input)
6,GATGATTGTTCTCCCAGCTGATGAATTCCTTCGTTCGAGTAAACAAATTTTCCTAATCTTTCTGTTCAAGCGCCATCTAC,0.849 RPM ratio (pull-down/input)
7,GATGATTGTTCTCCCAGCTGATGAATTATATGCTTCGAGTAAACAAATTTTCCTAATCTTTCTGTTCAAGCGCCATCTAC,1.04 RPM ratio (pull-down/input)
8,GATGATTGTTCTCCCAGCTGATGAATTTGACAAATCGAGTAAACAAATTTTCCTAATCTTTCTGTTCAAGCGCCATCTAC,1.07 RPM ratio (pull-down/input)
9,GATGATTGTTCTCCCAGCTGATGAATTATCGTTCTCGAGTAAACAAATTTTCCTAATCTTTCTGTTCAAGCGCCATCTAC,0.944 RPM ratio (pull-down/input)
10,GATGATTGTTCTCCCAGCTGATGAATTGATAATTTCGAGTAAACAAATTTTCCTAATCTTTCTGTTCAAGCGCCATCTAC,1.09 RPM ratio (pull-down/input)
11,GATGATTGTTCTCCCAGCTGATGAATTTGTCTGGTCGAGTAAACAAATTTTCCTAATCTTTCTGTTCAAGCGCCATCTAC,0.964 RPM ratio (pull-down/input)
12,GATGATTGTTCTCCCAGCTGATGAATTGGCAAACTCGAGTAAACAAATTTTCCTAATCTTTCTGTTCAAGCGCCATCTAC,0.927 RPM ratio (pull-down/input)
13,GATGATTGTTCTCCCAGCTGATGAATTGATGCGTTCGAGTAAACAAATTTTCCTAATCTTTCTGTTCAAGCGCCATCTAC,1.41 RPM ratio (pull-down/input)
14,GATGATTGTTCTCCCAGCTGATGAATTACGAGAATCGAGTAAACAAATTTTCCTAATCTTTCTGTTCAAGCGCCATCTAC,1.08 RPM ratio (pull-down/input)
15,GATGATTGTTCTCCCAGCTGATGAATTTGCCTAGTCGAGTAAACAAATTTTCCTAATCTTTCTGTTCAAGCGCCATCTAC,0.83 RPM ratio (pull-down/input)
